# According to the supplement of paper PMC12889115:
# Some of the results follow. No stated cut-off is given here; in the data, active = 25% or less and inactive = the rest. Many values rest on one well or one pass, so single values are uncertain.
# Test system: Salmonella enterica serovar Typhimurium SL1344
# Assay: intramacrophage bacterial GFP load (SAFIRE), percent of DMSO control (% of DMSO); higher = more intracellular bacteria (less inhibition)
# Details: 25 µM; system: infected RAW 264.7 macrophages
# Method: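 Secondary screen of the 553 primary hits at 25 µM. (i) S. Typhimurium SL1344 grown in Mueller-Hinton broth with 0.5 µg/mL polymyxin B, OD600 read after 18 h. (ii) SAFIRE assay: RAW 264.7 macrophages infected with S. Typhimurium sifB::gfp (MOI 30); compound added 2 h post-infection; cells fixed at 18 h; GFP-positive pixel fraction per macrophage imaged by confocal microscopy and expressed as % of DMSO control.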
# 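Further: compounds tested were the hits of an earlier 50 µM broth growth screen of a drug-like diversity library run with polymyxin B.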
row,Structure (SMILES),intramacrophage bacterial GFP load
1,O=C(c1cn(Cc2c(F)cccc2F)nn1)N(Cc1ccccc1)CC1CCC1,inactive: 122
2,O=C(c1cn(Cc2ccccc2F)nn1)N(Cc1ccccc1)CC1CC1,inactive: 79.7
3,COc1cccc(CN2CCCC(C(=O)c3ccc(Cl)cc3C)C2)c1O (stereo not drawn),active: 5.97
